From article PMC2684588
These are yes or no findings as the source states them, for the method shown. Binding seen in cells or lysates may run through a third protein. Some entries that bind do so weakly or less than the wild type. For some assays here: Sequences can lack the tags named with a protein.

By UniProt entry, the sequences of proteins in these tests, tags left out.
UniProt Q7Z434: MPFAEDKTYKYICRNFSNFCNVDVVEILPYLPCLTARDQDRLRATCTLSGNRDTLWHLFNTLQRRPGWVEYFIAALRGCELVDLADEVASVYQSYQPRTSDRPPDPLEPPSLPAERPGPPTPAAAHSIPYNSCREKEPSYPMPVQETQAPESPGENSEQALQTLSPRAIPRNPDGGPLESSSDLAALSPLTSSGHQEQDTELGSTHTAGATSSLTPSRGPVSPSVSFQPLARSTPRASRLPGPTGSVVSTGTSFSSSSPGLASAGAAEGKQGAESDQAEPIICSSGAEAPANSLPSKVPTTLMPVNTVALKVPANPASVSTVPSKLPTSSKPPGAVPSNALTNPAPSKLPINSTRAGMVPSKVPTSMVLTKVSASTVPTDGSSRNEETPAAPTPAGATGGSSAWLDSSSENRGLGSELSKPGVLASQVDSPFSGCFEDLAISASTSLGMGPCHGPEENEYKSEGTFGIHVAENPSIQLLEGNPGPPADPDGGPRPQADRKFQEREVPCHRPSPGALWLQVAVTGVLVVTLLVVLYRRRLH

T1: Flag-tagged RIG-I (UniProt O95786)
T1 sequence: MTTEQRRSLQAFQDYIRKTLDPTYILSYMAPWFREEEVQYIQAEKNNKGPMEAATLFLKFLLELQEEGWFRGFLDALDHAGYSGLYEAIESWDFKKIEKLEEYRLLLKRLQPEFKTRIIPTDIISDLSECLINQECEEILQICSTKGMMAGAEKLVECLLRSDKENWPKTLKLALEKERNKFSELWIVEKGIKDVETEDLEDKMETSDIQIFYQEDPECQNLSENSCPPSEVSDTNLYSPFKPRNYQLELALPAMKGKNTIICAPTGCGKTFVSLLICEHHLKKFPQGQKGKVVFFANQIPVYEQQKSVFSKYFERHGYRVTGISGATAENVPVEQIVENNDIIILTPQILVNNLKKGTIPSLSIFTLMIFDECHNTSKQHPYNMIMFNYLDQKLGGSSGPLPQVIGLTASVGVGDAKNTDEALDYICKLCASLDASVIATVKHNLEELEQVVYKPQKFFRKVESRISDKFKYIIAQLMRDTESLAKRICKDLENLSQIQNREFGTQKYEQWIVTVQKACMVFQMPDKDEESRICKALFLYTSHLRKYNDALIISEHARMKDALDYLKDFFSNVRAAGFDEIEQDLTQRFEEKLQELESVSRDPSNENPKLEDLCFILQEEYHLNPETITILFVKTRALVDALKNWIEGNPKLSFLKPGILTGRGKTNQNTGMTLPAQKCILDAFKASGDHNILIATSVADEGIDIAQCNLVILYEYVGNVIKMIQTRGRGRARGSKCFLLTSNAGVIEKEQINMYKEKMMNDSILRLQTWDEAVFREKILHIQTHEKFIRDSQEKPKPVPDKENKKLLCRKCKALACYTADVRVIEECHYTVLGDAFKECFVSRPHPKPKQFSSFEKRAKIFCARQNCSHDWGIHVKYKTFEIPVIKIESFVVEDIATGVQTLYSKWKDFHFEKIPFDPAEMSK

T2: endogenous RIG-I of HEK293T cells (human (endogenous in HEK293T)) (UniProt O95786)
T2 sequence: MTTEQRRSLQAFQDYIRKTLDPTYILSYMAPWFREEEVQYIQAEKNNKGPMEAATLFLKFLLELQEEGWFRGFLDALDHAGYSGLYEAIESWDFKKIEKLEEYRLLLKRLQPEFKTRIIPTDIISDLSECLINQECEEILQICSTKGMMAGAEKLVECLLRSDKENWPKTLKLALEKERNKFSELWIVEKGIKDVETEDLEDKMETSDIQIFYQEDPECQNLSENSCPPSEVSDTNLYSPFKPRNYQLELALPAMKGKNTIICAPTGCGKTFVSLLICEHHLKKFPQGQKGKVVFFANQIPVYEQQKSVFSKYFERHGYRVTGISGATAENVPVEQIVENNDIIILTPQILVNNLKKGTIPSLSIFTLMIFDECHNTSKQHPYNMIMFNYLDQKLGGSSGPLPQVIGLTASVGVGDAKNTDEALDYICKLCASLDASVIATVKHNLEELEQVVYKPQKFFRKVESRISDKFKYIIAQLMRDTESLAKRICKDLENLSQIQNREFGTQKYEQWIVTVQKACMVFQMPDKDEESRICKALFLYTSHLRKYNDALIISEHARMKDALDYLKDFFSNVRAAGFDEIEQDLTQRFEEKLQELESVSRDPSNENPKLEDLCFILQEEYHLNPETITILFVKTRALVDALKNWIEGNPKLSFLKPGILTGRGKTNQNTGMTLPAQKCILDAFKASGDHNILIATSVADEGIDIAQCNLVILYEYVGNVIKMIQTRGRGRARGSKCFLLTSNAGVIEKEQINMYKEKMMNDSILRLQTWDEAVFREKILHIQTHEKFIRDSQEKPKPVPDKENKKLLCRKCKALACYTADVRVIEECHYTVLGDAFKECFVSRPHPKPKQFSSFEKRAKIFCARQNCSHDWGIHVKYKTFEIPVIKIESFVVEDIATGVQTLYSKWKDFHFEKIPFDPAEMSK


What was measured:
[1] = biological target: Flag-VISA (UniProt Q7Z434); experiment: co-IP; HEK293/HEK293T cells co-transfected with Flag- and HA-tagged plasmids; lysis buffer 20 mM Tris pH 7.5, 150 mM NaCl, 1% Triton X-100, 1 mM EDTA; IP with anti-Flag, anti-HA or mouse IgG and protein-A sepharose for 2 h; Western blot
[2] = biological target: T1, Flag-tagged RIG-I; experiment: as above
[3] = biological target: T2, endogenous RIG-I of HEK293T cells (human (endogenous in HEK293T)); experiment: co-IP; endogenous proteins; untransfected HEK293T cells treated with SV for 4 h before lysis
[4] = biological target: T2, endogenous RIG-I of HEK293T cells (human (endogenous in HEK293T)); experiment: condition: only cells transfected with polyI:C (100 µg, 4 h) instead of SV infection; co-IP; endogenous proteins; HEK293T cells transfected with polyI:C (100 µg) for 4 h before lysis
[5] = biological target: T2, endogenous RIG-I of HEK293T cells (human (endogenous in HEK293T)); experiment: condition: only cells without stimulation (no SV infection); co-IP; endogenous proteins; HEK293T cells left untreated

binding [1] | binding [2] | binding [3] | binding [4] | binding [5] | Binder
no binding | binds |  |  |  | HA-tagged REUL, full-length (protein, UniProt Q8IUD6-1 1-432) MAGLGLGSAVPVWLAEDDLGCIICQGLLDWPATLPCGHSFCRHCLEALWGARDARRWACPTCRQGAAQQPHLRKNTLLQDLADKYRRAAREIQAGSDPAHCPCPGSSSLSSAAARPRRRPELQRVAVEKSITEVAQELTELVEHLVDIVRSLQNQRPLSESGPDNELSILGKAFSSGVDLSMASPKLVTSDTAAGKIRDILHDLEEIQEKLQESVTWKEAPEAQMQGELLEAPSSSSCPLPDQSHPALRRASRFAQWAIHPTFNLKSLSCSLEVSKDSRTVTVSHRPQPYRWSCERFSTSQVLCSQALSSGKHYWEVDTRNCSHWAVGVASWEMSRDQVLGRTMDSCCVEWKGTSQLSAWHMVKETVLGSDRPGVVGIWLNLEEGKLAFYSVDNQEKLLYECTISASSPLYPAFWLYGLHPGNYLIIKQVKV
 |  | binds | no binding | no binding | endogenous REUL of HEK293T cells (protein, UniProt Q8IUD6-1 1-432) MAGLGLGSAVPVWLAEDDLGCIICQGLLDWPATLPCGHSFCRHCLEALWGARDARRWACPTCRQGAAQQPHLRKNTLLQDLADKYRRAAREIQAGSDPAHCPCPGSSSLSSAAARPRRRPELQRVAVEKSITEVAQELTELVEHLVDIVRSLQNQRPLSESGPDNELSILGKAFSSGVDLSMASPKLVTSDTAAGKIRDILHDLEEIQEKLQESVTWKEAPEAQMQGELLEAPSSSSCPLPDQSHPALRRASRFAQWAIHPTFNLKSLSCSLEVSKDSRTVTVSHRPQPYRWSCERFSTSQVLCSQALSSGKHYWEVDTRNCSHWAVGVASWEMSRDQVLGRTMDSCCVEWKGTSQLSAWHMVKETVLGSDRPGVVGIWLNLEEGKLAFYSVDNQEKLLYECTISASSPLYPAFWLYGLHPGNYLIIKQVKV
